The RNAGym collection of RNA variant scans (doi:10.1093/nar/gkz1192)
The source gives no read counts; variants with many changes may rest on few reads.

B1: CPEB3 Ribozyme (parent)
chain: UAACAGGGGGCCACAGCAGAAGCGUUCACGUCGCAGCCCCUGUCAGAUUCUGGUGAAUCUGCGAAUUCUGCUGUAUAUCUC

Variants of: B1
Assay: self-cleavage, relative activity (ratio to wild type); higher = more cleavage; in vitro, sequencing
How it was run: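 Libraries of CPEB3 self-cleaving ribozyme mutants came from rounds of error-prone PCR and carried barcodes, which DNA sequencing matched to variants. In vitro transcription used T7 RNA polymerase at 37°C for 5 hours, with a further 15 min in DNase I before EDTA stopped the reaction; the ribozymes cleaved during both steps. The RNA was reverse transcribed with template switching and sequenced on Illumina. Relative activity is the cleaved/total read fraction of a variant divided by that of the unmutated ribozyme, averaged over three batches with at least 5 reads.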
A35G U41C A45U U58G U69A U72C U76C gave a self-cleavage of 0.31.
A35G G53A U69A showed a self-cleavage of 1.24.
A35G U41G A57G U76C A77G gave a self-cleavage of 0.2.
A35G U41A U43A gave a self-cleavage of 0.29.
A35G U41C U54C C71A showed a self-cleavage of 0.43.
Work on A35G U48C U51A yielded a self-cleavage of 1.2.
Work on A35G U43C U60A yielded a self-cleavage of 0.45.
With A35G U54C U60A the self-cleavage was 0.99.
Variant A35G U48A U51C U60A U78C has a self-cleavage of 0.22.
With A35G U49C U80C the self-cleavage was 1.09.
A35G U41C A45G gave a self-cleavage of 1.43.
A35G U43C U76A gave a self-cleavage of 1.25.
With A35G U41A U74C the self-cleavage was 0.52.
Variant A35G C40U U41C has a self-cleavage of 1.23.
A35G U43C U49A G63A A65U U69A U72A showed a self-cleavage of 0.06.
In the case of A35G U51G A65G, the self-cleavage is reported as 1.27.
For A35G U51C U54C, the self-cleavage was 1.23.
In the case of A35G C37U U41C U54A, the self-cleavage is reported as 1.3.
Variant A35G A65U U74C has a self-cleavage of 1.06.
A35G C40U U41A A45U showed a self-cleavage of 0.41.
In the case of A35G G70A C71U, the self-cleavage is reported as 0.93.
With A35G C38A A47U C71A the self-cleavage was 0.13.
A35G A57G U69A gave a self-cleavage of 1.14.
A35G G36A U54C U67C showed a self-cleavage of 0.1.
For A35G U48A U49G U72C, the self-cleavage was 0.63.
Work on A35G U51A U66C yielded a self-cleavage of 1.25.
A35G C68U U78C gave a self-cleavage of 1.27.
A35G U49C U58A U67C gave a self-cleavage of 0.11.
For A35G G63U U67A U72C, the self-cleavage was 1.24.
Work on A35G U43C U66C U80C yielded a self-cleavage of 0.64.
In the case of A35G G55A U67C U78C, the self-cleavage is reported as 0.64.
A35G U49C U60A U74C gave a self-cleavage of 0.91.
Variant A35G U51A A77U U80A has a self-cleavage of 1.32.
A35G U41C U54C gave a self-cleavage of 1.36.
A35G U43A A56G U74C showed a self-cleavage of 1.27.
With A35G U41C U58C the self-cleavage was 1.13.
Work on A35G U41C U43A U49C U60A A75U yielded a self-cleavage of 0.24.
Variant A35G U51A U54C U66C has a self-cleavage of 1.24.
With A35G A65G U72A the self-cleavage was 0.78.
For A35G U41C A56G U72A, the self-cleavage was 1.33.
Variant A35G U43A A57G A65G has a self-cleavage of 1.19.
A35G G46A A56U U78C showed a self-cleavage of 0.25.
In the case of A35G C39U U54C U66A U80C, the self-cleavage is reported as 0.96.
In the case of A35G U48C A56G, the self-cleavage is reported as 1.23.
For A35G C39U U54C G70C, the self-cleavage was 0.21.
For A35G C40U U48C U58C U78C, the self-cleavage was 0.32.
For A35G G55U A75G, the self-cleavage was 1.3.
For A35G A65G G73U U76C U80C, the self-cleavage was 1.32.
Work on A35G U41A A47U G53A yielded a self-cleavage of 0.34.
Variant A35G U41A U48C C50U C59A has a self-cleavage of 0.07.
For A35G U41C U43C U78C, the self-cleavage was 0.99.
With A35G U41C U72C U74C U80A the self-cleavage was 1.31.
With A35G U41C U43C A57G U66A the self-cleavage was 0.17.
A35G U51A A56G showed a self-cleavage of 1.27.
In the case of A35G U43A A65G U72C, the self-cleavage is reported as 1.05.
A35G U43C A45G U69A showed a self-cleavage of 0.25.
In the case of A35G U41A U43C U69A, the self-cleavage is reported as 0.05.
A35G U41C C50G A65U U67C U80C gave a self-cleavage of 0.48.
Work on A35G A57C U80A yielded a self-cleavage of 1.18.
In the case of A35G U54C U72C, the self-cleavage is reported as 1.36.
Work on A35G U41C U43A U78A yielded a self-cleavage of 1.22.
Variant A35G U43C A77G has a self-cleavage of 1.3.
For A35G U49C A57G, the self-cleavage was 0.97.
In the case of A35G U41C A45G U72A, the self-cleavage is reported as 0.96.
For A35G U41C A75U, the self-cleavage was 1.29.
In the case of A35G A57G A65G A77U, the self-cleavage is reported as 1.08.
Work on A35G U41C U67C yielded a self-cleavage of 0.37.
A35G U43G A45U U48A showed a self-cleavage of 0.05.
A35G U41A A57U G63A showed a self-cleavage of 0.26.
A35G U48C U49C G55U gave a self-cleavage of 0.74.
With A35G C62A U69C the self-cleavage was 0.64.
In the case of A35G U51A U60C A64G, the self-cleavage is reported as 1.06.
Work on A35G C37U U49C U54C yielded a self-cleavage of 1.15.
In the case of A35G C79U U80A, the self-cleavage is reported as 1.29.
In the case of A35G U41G U60A G73A, the self-cleavage is reported as 0.13.
In the case of A35G U41C U69A U72C, the self-cleavage is reported as 0.88.
With A35G U49C U60C U76C the self-cleavage was 0.2.
Variant A35G U41C U43G A45G has a self-cleavage of 0.37.
A35G U51C U54A U66C gave a self-cleavage of 1.04.
In the case of A35G G63A A65U A75U, the self-cleavage is reported as 1.35.
Variant A35G C44U U60C A65G has a self-cleavage of 0.24.
For A35G G53A U80C, the self-cleavage was 1.28.
Variant A35G A64U U66C has a self-cleavage of 0.54.
In the case of A35G C39A A45C U60A U78C, the self-cleavage is reported as 0.43.
For A35G G36U U41A U76C C79U, the self-cleavage was 0.18.
A35G U48A U58C gave a self-cleavage of 0.45.
Variant A35G U41C C59A has a self-cleavage of 1.
A35G U54C U66C showed a self-cleavage of 1.21.
For A35G U49C U54A A56G U60G, the self-cleavage was 0.96.
With A35G U54A A65G the self-cleavage was 1.28.
A35G A57U U69A showed a self-cleavage of 0.86.
With A35G A65U U66C U67A U76A the self-cleavage was 0.66.
Work on A35G U58A A65G C81U yielded a self-cleavage of 0.92.
Work on A35G C40A U67C yielded a self-cleavage of 0.31.
A35G A57G U60A U74C gave a self-cleavage of 1.39.
For A35G U41A U80C, the self-cleavage was 0.38.
A35G U41C U60A showed a self-cleavage of 1.08.
With A35G C44A G55C the self-cleavage was 0.8.
Variant A35G U43C U58C U80A has a self-cleavage of 0.5.
For A35G U48C U80C, the self-cleavage was 1.22.
Work on A35G U43C U67C yielded a self-cleavage of 0.53.
Work on A35G U43A U49A A64G U69A yielded a self-cleavage of 0.5.
In the case of A35G U51A A57U A64G, the self-cleavage is reported as 1.2.
A35G U43C A64G showed a self-cleavage of 1.19.
In the case of A35G U49C C50A U78C, the self-cleavage is reported as 1.27.
Work on A35G U41A U60C U78C yielded a self-cleavage of 0.14.
Work on A35G A64U U69C yielded a self-cleavage of 0.55.
A35G U41C U43C U49C U67C U78C showed a self-cleavage of 0.09.
Work on A35G C40U U48C U74A U80C yielded a self-cleavage of 1.3.
Work on A35G U58A A65U yielded a self-cleavage of 0.57.
With A35G G63A U66A U72C the self-cleavage was 1.21.
For A35G G46U U54A U69C, the self-cleavage was 0.22.
A35G U48C U58G showed a self-cleavage of 1.15.
For A35G U49C A64U, the self-cleavage was 0.46.
With A35G C40A U69C U72A the self-cleavage was 0.06.
Variant A35G U43A A45U A56G has a self-cleavage of 1.15.
A35G G63C C71G U74A showed a self-cleavage of 1.25.
In the case of A35G A64U U66C U74C U78C, the self-cleavage is reported as 0.6.
Variant A35G C37U U41C G42U U51A has a self-cleavage of 0.28.
A35G U54A U58C U67A showed a self-cleavage of 1.08.
Work on A35G U49C U66C U78C U80A yielded a self-cleavage of 0.33.
A35G G63U U78C showed a self-cleavage of 1.28.
Work on A35G U49C U69G yielded a self-cleavage of 0.47.
Work on A35G U48C U72C yielded a self-cleavage of 1.17.
Variant A35G U41C G52A has a self-cleavage of 1.28.
For A35G C40A U48C U72C, the self-cleavage was 0.34.
Variant A35G U51C U58C U78A has a self-cleavage of 1.14.
For A35G U49C A64G U67C, the self-cleavage was 0.46.
With A35G C71G U74A the self-cleavage was 1.4.
Variant A35G U41A G52U U60C C68A has a self-cleavage of 0.14.
In the case of A35G G36C U54C U60C U66C U74C U78C, the self-cleavage is reported as 0.05.
A35G U41A U72G gave a self-cleavage of 0.43.
With A35G U43A A65G the self-cleavage was 0.83.
Variant A35G U54G U72C has a self-cleavage of 1.15.
A35G U43C U72C A75G U80A gave a self-cleavage of 1.29.
In the case of A35G U41C U69A, the self-cleavage is reported as 1.31.
With A35G G42C U69C the self-cleavage was 0.15.
With A35G A65U A77G the self-cleavage was 0.96.
Work on A35G G36C U48C U67C yielded a self-cleavage of 0.11.
With A35G U41C G46C C71U the self-cleavage was 0.33.
For A35G U41A A56U, the self-cleavage was 0.19.
For A35G C44U U69C, the self-cleavage was 0.37.
With A35G U43C U58C U72C the self-cleavage was 0.6.
With A35G U43G A47U U54A U72A U78C the self-cleavage was 0.04.
In the case of A35G U48C U72C A77G, the self-cleavage is reported as 0.55.
A35G U49A U69C gave a self-cleavage of 0.37.
A35G C38U U58C U69A A77G gave a self-cleavage of 0.7.
Variant A35G U43C U54C has a self-cleavage of 0.87.
For A35G U48C U49C, the self-cleavage was 0.34.
In the case of A35G U48C U49A, the self-cleavage is reported as 0.9.
A35G U54A A64G gave a self-cleavage of 1.36.
In the case of A35G A64U U69C U72C, the self-cleavage is reported as 0.67.
Variant A35G U43C A65U has a self-cleavage of 0.35.
With A35G U51A U54A U60G A64G the self-cleavage was 0.94.
Variant A35G U43C U58A U78C has a self-cleavage of 0.26.
A35G U43C A47U showed a self-cleavage of 0.8.
For A35G U41A A45G, the self-cleavage was 0.32.
Work on A35G C40G A56U U69C A75G yielded a self-cleavage of 0.09.
A35G U43A U72A A77C showed a self-cleavage of 1.21.
Work on A35G U51C U66C U69C yielded a self-cleavage of 0.7.
For A35G A64G U69A, the self-cleavage was 0.75.
A35G U41C U78C showed a self-cleavage of 1.25.
With A35G U41A A47G U58C A77G U80C C81U the self-cleavage was 0.47.
A35G C40A U80A gave a self-cleavage of 0.38.
A35G U48C U51C C71U gave a self-cleavage of 0.33.
A35G A64G U72C gave a self-cleavage of 0.85.
Work on A35G A65G U66C U78C yielded a self-cleavage of 0.47.
